Reference: the antibiotic and cytotoxicity screens of Wong et al. (2023)
The list shows a part of the results.

Key:
[1] = system: HSkMC (human skeletal muscle cells); assay: cytotoxicity call (relative viability < 0.9); details: 10 µM
[2] = system: HepG2; assay: cytotoxicity call (relative viability < 0.9); details: 10 µM
[3] = system: S. aureus RN4220; assay: growth inhibition call (relative growth <= 0.2); details: 50 µM

SMILES	cytotoxicity call [1]	cytotoxicity call [2]	growth inhibition call [3]
C=CC1(C)CC(=O)C2(O)C(C)(O1)C(O)C(O)C1C(C)(C)CCC(O)C12C (stereo unspecified)	inactive	inactive	inactive
C[C@@H]1CN([C@@H](C)CO)C(=O)c2cccc(NS(=O)(=O)c3cn(C)cn3)c2O[C@@H]1CN(C)C(=O)Nc1ccc2c(c1)OCO2	inactive	inactive	inactive
C=CCC[C@@H](Cc1ccc(F)cc1)C(=O)O[C@@H](CNC(=O)[C@@H](CC=C)CC(=O)N[C@@H](CO)Cc1ccccc1)c1ccccc1	active	inactive	inactive
NCC(=O)Nc1ccc(F)c(F)c1F	inactive	inactive	inactive
C[C@H](CO)N1C[C@H](C)[C@H](CN(C)S(C)(=O)=O)Oc2c(NC(=O)Nc3ccccc3)cccc2C1=O	inactive	inactive	inactive
CCCN(C)C[C@H]1OCCCC[C@@H](C)Oc2ccc(NC(=O)c3ccccc3)cc2C(=O)N([C@@H](C)CO)C[C@H]1C	inactive	inactive	inactive
CC(C)CC#Cc1ccc2c(c1)O[C@@H](CN(C)S(=O)(=O)c1ccc(F)cc1)[C@H](C)CN([C@H](C)CO)S2(=O)=O	inactive	inactive	inactive
C[C@H]1CN([C@@H](C)CO)C(=O)c2cc(NS(C)(=O)=O)ccc2O[C@@H]1CN(C)Cc1ccc2c(c1)OCO2	inactive	inactive	inactive
CO[C@H]1O[C@H](CO)[C@@H](OC(=O)Nc2cccc(F)c2)[C@H](OC(=O)Nc2ccccc2-c2ccccc2)[C@@H]1OC(=O)Nc1ccccc1-c1ccccc1	active	inactive	inactive
CN1CCc2c(n[nH]c2CNc2ncccn2)C1	inactive	inactive	inactive
C[C@@H]1CN([C@@H](C)CO)C(=O)Cc2cc(NC(=O)Nc3cccc4ccccc34)ccc2O[C@@H]1CN(C)C(=O)Nc1ccc(C(F)(F)F)cc1	active	inactive	inactive
C[C@@H]1CN([C@@H](C)CO)C(=O)c2cc(NS(=O)(=O)c3ccccc3)ccc2O[C@@H](C)CCCCO[C@@H]1CN(C)Cc1ccccc1	inactive	inactive	inactive
COCCNC(=O)NC(=O)COC(=O)c1cccn1C	inactive	inactive	inactive
Cc1noc(C)c1S(=O)(=O)N(C)C[C@H]1Oc2ccc(NS(=O)(=O)c3ccccc3)cc2C(=O)N([C@H](C)CO)C[C@H]1C	inactive	inactive	inactive
c1ccc(-c2ccnc(-c3cc(-c4ccccc4)ccn3)c2)cc1	inactive	inactive	inactive
CC(=O)OC1CC(OC(C)=O)C2(C)C(CC(O)C3(C)C2CCC2(C)C(c4ccoc4)OC(=O)C4OC423)C1(C)C (stereo unspecified)	inactive	inactive	inactive
C[C@H](O)C#Cc1ccc2c(c1)O[C@H](CN(C)C(=O)c1ccncc1)[C@H](C)CN([C@@H](C)CO)S2(=O)=O	inactive	inactive	inactive
COc1ccc(S(=O)(=O)Nc2ccc3c(c2)C(=O)N([C@H](C)CO)C[C@H](C)[C@@H](CN(C)S(C)(=O)=O)OCCCC[C@H](C)O3)cc1	inactive	inactive	inactive
C[C@@H]1CN([C@@H](C)CO)C(=O)c2cc(N(C)C)ccc2O[C@@H](C)CCCCO[C@@H]1CN(C)C(=O)Nc1ccc(C(F)(F)F)cc1	inactive	active	inactive
C[C@H](CO)N1C[C@H](C)[C@@H](CN(C)C(=O)Cc2cccnc2)Oc2cc(C#CC3(O)CCCC3)ccc2S1(=O)=O	inactive	inactive	inactive
Cc1noc(C)c1S(=O)(=O)Nc1ccc2c(c1)C(=O)N([C@H](C)CO)C[C@H](C)[C@H](CN(C)S(C)(=O)=O)O2	inactive	inactive	inactive
O=C(NO)c1ccc(-c2cn(CC[C@@H]3OC(=O)[C@H](Cc4ccccc4)N4CC5=CC(=O)[C@H](C6CC6)[C@H]5[C@H]34)nn2)s1	inactive	inactive	inactive
C[C@H](CO)N1C[C@H](C)[C@H](CN(C)C)Oc2cc(C#C[C@@H](C)O)ccc2S1(=O)=O	inactive	inactive	inactive
C[C@@H]1CN([C@@H](C)CO)C(=O)c2cc(NC(=O)Nc3cccc4ccccc34)ccc2O[C@@H]1CN(C)Cc1ccncc1	inactive	inactive	inactive
N[C@H](C(=O)O)[C@@H](O)C(=O)O	inactive	inactive	inactive
CN(C)CC(=O)N[C@H]1C=C[C@H](CC(=O)O)O[C@@H]1CO	inactive	inactive	inactive
C[C@H](CO)N1C[C@H](C)[C@@H](CN(C)S(=O)(=O)c2ccc(F)cc2)Oc2ccc(NS(=O)(=O)c3ccccc3)cc2C1=O	inactive	inactive	inactive
